Variants at the floor of the assay are shown more often than the library holds them. Some results are limits rather than exact numbers.

B1: TPR 5TU (parent)
chain: GGAUCUUCUCGAUCUAACAAAAAAGACAAAUCUGCCACAAAGCUUGAGAGCAUCUUCGGAUGCAGAGGCGGCAGCCUUCGGUGGCGCGAUAGCGCCAACGUUCUCAACUAUGACACGCAAAACGCGUGCUCCGUUGAAUGGAGUUUAUCAUG

In the series the parent is B1. Nature of the series: polymerase ribozyme fitness, log enrichment relative to wild type (log ratio); higher = more active; in vitro selection for triplet polymerase activity. The procedure, abridged: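 Mutant libraries for each subunit of a heterodimeric triplet polymerase ribozyme were made by PCR and then transcribed. Each library underwent one round of in vitro selection in triplicate: annealing with a biotinylated primer, the partner subunit and triplets, frozen incubation at −7 °C, gel excision of extended constructs, streptavidin-bead capture and RT-PCR. Input and output libraries were Illumina-sequenced, and only genotypes with ≥10 input reads and ≥1 read per output were kept. Fitness is the logarithm, base 2, of genotype enrichment over wild-type enrichment, computed from inverse-variance-weighted replicate averages.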
As to GGAUCUUCUCGAUCUAACAAAAAAGCCACACCUGCCACAAAGCUUGAGAGCAUCUUCGGAUGCAGAGGCGGCAGCCUUCGGUGGCGCGAUAGGGCCAACGUUCUCAACUGUGACACGCAAAACCCGUGCUCCGUGGAAUUGAGUUUAUCAUG [A26C A29C U31C C93G A110G G124C U135G G140U], the “polymerase ribozyme fitness (log ratio)” value is ≤ -4.2.

Regarding GGAUCUUCUCGAUCUAACAAAAAAUACAAAUCUGCCACAAAGCUAGAGAGCAUCUUCGGAUGCAGAGGCGGCAGCCUUCGGUGGCGCGAUAGCGCCAACGUUCUCAACUAUGACACGCAAAACGCGUGCUCCGUUGAAUGGAGUUUAUCAUG [G25U U45A], the “polymerase ribozyme fitness (log ratio)” value was ≤ -4.2.

Consider GGAUCUUCUCGAUCUAACAAAAAAUACAAAUCUGCCACAAAGCUUGAGAGCAUCUACGGAUGCAGAGGCGGCAGCCUUCGGUGGCGCGAUAGCUACAACGUUCUCAACUAUUACACGCAAAGUGCGUGCUCCGUUGAAUGGAGUUUAUCAUG [G25U U56A G94U C95A G112U A122G C123U], for which the “polymerase ribozyme fitness (log ratio)” value is ≤ -4.2.

As for GGAUCUUCUCGAUCUAACAAAAAAUACAAAUCUGCCACAAACCUUGAGAGCAUCUUCGGAUGCAGAGGCGGCAGCCUUCGGUGGUGCGAUAGCGUCAACGUUCUCAACUAUGACACGCAAAACGCGUGCUCCGUUGAAUGGAGUUUAUCAUG [G25U G42C C85U C95U], the “polymerase ribozyme fitness (log ratio)” value was ≤ -4.2.

GGAUCUUCUCGAUCUAACAAAAAAGCCAAAUCUGCCACAAAGCUUGAGAGCAUCUUCGGAUGCAGAGGCGGCAGCCUUCGGUGGCGCGAUAGCGCCAACGUUCUCAACUAUGACACGCAAAACGCGUGCUCCGUUGAAUGGAGUUUAUCAUG [A26C]: the “polymerase ribozyme fitness (log ratio)” value was -1.49.

In the case of GGAUCUUCUCGAUCUAACAAAAAAUACAAAUCUGCCACAAAGCUUGAGAGCAUCUUCGGAUGCAGAGGCGGCAGCCUUCGGUGGCGCUAUAGCGCCAACGUUCUCAACUAUGACACGCAAAACGCGUGCUCCGUUGAAUGGAGUUUAUCAUG [G25U G88U], the “polymerase ribozyme fitness (log ratio)” value is ≤ -4.2.

As to GGAUCUUCUCGAUCUAACAAAAAAGCCAAAUCUGCCUCAAAGCUUGAAAGCAUCUUCGGAUGCAGAGGCGGCAGCCUUAGGUGGCGCGAUAGCGCCAACGUUCUCAACUAUGACACGCAAAACGCGUGCUCCGUUGAAUGGACUUUAUCAUG [A26C A37U G48A C79A G143C], the “polymerase ribozyme fitness (log ratio)” value is ≤ -4.2.

Take GGAUCUUCUCGAUCUAACAAAAAAGCCAAAUCUGCCACAAAGCUUGCGAGCCUCUUCCGAUGCAGAGGCGACAGCCUUCGGUGGCGCGAUAGCGCCAACCUUCUCAACUAUGACAAGCAAAACGCGUGCUCCGUUGAAUGGAGUUUAUCAUG [A26C A47C A52C G58C G71A G100C C116A]: the “polymerase ribozyme fitness (log ratio)” value was ≤ -4.2.

On to GGAUCUUCUCGAUCUAACAAAAAAUACAAAUCUGCCACAAAGCUUGAGAGCAUCUUCGGAUGCAGAGGCGGCAGCCUUCGGUGGGGCGAUAGCGCCAACGUUCUCAACUAUGACACGCUAAACGCGUGCUCCGUUGAAUGGAGUUUAUCAUG [G25U C85G A119U], for which the “polymerase ribozyme fitness (log ratio)” value is ≤ -4.2.

As for GGAUCUUCUCGAUCUAACAAAAAAGCCAAAUCUGCCACAAAGCUUGAGAGCCACUUCGGAUGCAGAGGCGGCAGCCUUCGGUGGCGCGAUAGCGCCAACGUUCUCAACUAUGACACGCAAAACGCGUGCUCCGUUGAAUGGAGUUUAUCAUG [A26C A52C U53A], the “polymerase ribozyme fitness (log ratio)” value was ≤ -4.2.

For the variant GGAUCUUCUCGAUCUAACAAAAAAGCCCAAUCUGCCACAGUGCUUGAGAGCAUCUUCGCAUGCAGAGGCGGCAGACUUCGGUGGCGCGAUAGCGCCAACGUUCUCAACUAUGACAUGCAAAACGCGUGCUCCGUUGAAUGGAGUUUAUAAUG [A26C A28C A40G A41U G59C C75A C116U C149A], the “polymerase ribozyme fitness (log ratio)” value is ≤ -4.2.

Regarding GGAUCUUCUCGAUCUAACAAAAAAGCCAAUUCUGCCAGAAAGCUUGAGAGCAUCUUCGGAUGCAGAGGCGGCGCCCUUCGGUGACGCUAUAGCGCCAUCGUUCUCUACUAUGAUACGCAAAACGCGUGCUCCGUUUAAUGGAGUUUAACAUG [A26C A30U C38G A73G G74C G84A G88U A98U A106U C114U G136U U148A], the “polymerase ribozyme fitness (log ratio)” value was ≤ -4.2.

For the variant GGAUCUUCUCGAUCUAACAAAAAAUACAAAUCUGCCACAAAGCUUGAGAGCAUCUUCGGAUGCAGAGGCGGCAGCCUUCGGUGGCUCGAUAGCGCCAACGUUCUCAACUAUGACACGCAAAACGCGUGCUCCGUUGAAUGGAGUUUAUCCUG [G25U G86U A150C], the “polymerase ribozyme fitness (log ratio)” value is ≤ -4.2.

Take GGAUCUUCUCGAUCUAACAAAAAAGCCAAAUCUGCCACAAAGCUUGAGAGCUUUUUCAGAUGCAGAGGCGACACCCUUCGGUGGCGUGAUAGCGCCAACGUUCUCAAAUAUGACACGCAAAACGCGUGCUCCGUUGAAUGGAGUUUAUCAUG [A26C A52U C54U G58A G71A G74C C87U C108A]: the “polymerase ribozyme fitness (log ratio)” value is ≤ -4.2.

Take GGAUCUUCUCGAUCUAACAAAAAAUACAAAUCUGCCACAAAGCUUGAGAGCAUCUCCGGAUGCAGAGGCGGCAGCCUUCGGUGGCGCGAUCGCGCCAACGUUCUCAACUAUGACACGCAAAACGCGAGCUCCGUUGAAUGGAGUUUAUCAUG [G25U U56C A91C U127A]: the “polymerase ribozyme fitness (log ratio)” value was ≤ -4.2.

GGAUCUUCUCGAUCUAACAAAAAAUACAAAUCUGCCACAAAGCUUGAGAGCAUCUUCGGAUGCAGAGGCGGCAGCCUUCGGUGGUGCGAUAGCGCCAGCGUUCUCAACUAUGACACGCAAAACGCGUGCUCCGUUGAAUGGAGUUUACCAUG [G25U C85U A98G U148C]: the “polymerase ribozyme fitness (log ratio)” value is ≤ -4.2.

For GGAUCUUCUCGAUCUAACAAAAAAUACAAAUCUGCCACAAAGCUUGAGAGCAUCUUCGGAUGCAGAGGCGGCAGCCUUCGGUGUCGCGAUAGCGCCAACGUUCUCAACUAUGACACGCAAAACGCGUGCUCCGUUGAAUGGAGUUUAUCAUG [G25U G84U], the “polymerase ribozyme fitness (log ratio)” value is -3.64.

As to GGAUCUUCUCGAUCUAACAAAAAAGCCAAAUCUGCCACAAAGCUUGAGAGCAUCUUCGGAUGCAGAGGCGGCAGCCUUCGGUGGCGCGAUAGCGCCAACGUUCUCAGCUAUGACACGCAAAACGCGUGCUCCGUUGAAUGGAGUUUAUCAUG [A26C A107G], the “polymerase ribozyme fitness (log ratio)” value is ≤ -4.2.

Take GGAUCUUCUCGAUCUAACAAAAAAGCCAAAUCUGCCAGAAAGCUUGAGAGCAUCUUCGGAUGCAGAGCCGGCAGCUUUCGGUGUCGCGAUAGCGCCAACGUUCUCAACUAUGACACGCAAAACGCGUGCUCCGUUGAAGGGAGUUUAUCAUG [A26C C38G G68C C76U G84U U139G]: the “polymerase ribozyme fitness (log ratio)” value is ≤ -4.2.

(Values after the RNAGym collection of RNA variant scans (doi:10.1073/pnas.2313332121).)
